Results on 49 compounds are retold here after PubChem BioAssay AID1508623 (National Center for Advancing Translational Sciences (NCATS), 2021).

Molecules are shown by their SMILES. The campaign covered roughly 48,000 compounds. About 450 (0.94%) were called active. About 19% were inconclusive and are not listed. Calls follow the shape of the dose curve; as a rule, active = well fitted inhibition curve with a large enough effect; inconclusive = small, poorly fitted or top-dose-only effect; inactive = no such curve, though single readings can be large or run the other way. The list shows a part of the results.
Potency is read from the fitted curve at half-maximal effect.

This assay in a line: Primary qHTS for Identification of Small Molecule Inhibitors of Huntingtin Promoter Activity. Also: nearly all actives have a fitted effect of over 50% in size. The note with it: HEK293 HTT promoter firefly luciferase reporter (activity 0% = vehicle and -100% = no light), 24 h; series mostly up to 57.5 µM; activity change, negative = inhibition: at the top concentration. A digest of the protocol: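 Luminescence was read after Dual-Glo reagent and a 10 min room-temperature incubation. Values were normalized to vehicle (0% activity) and zero RLU (-100% activity). Reporter HEK293 cells had been exposed to compounds (up to 57.5 uM final) for 24 h.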
For the compound `COc1ccccc1NC(=O)c1cc2c(C)nn(-c3ccccc3)c2s1`, the activity change, negative = inhibition is inactive: -1.12% [at 11.5 µM]. Still for that read-out and setting: with `COc1ccc(N2CCN(C(=O)COCc3cc(-c4ccc5c(c4)OCO5)on3)CC2)cc1` the figure was inactive: -29.5%. With `COc1ccc(NC(=O)c2sc3nc(C(F)(F)F)cc(C)c3c2N)cc1OC`, the “activity change, negative = inhibition” value is inactive: -14.4%. The same measure, in the same setting: with `Cc1cc(C)cc(Oc2nc3ccccn3c(=O)c2/C=C(\C#N)c2nc3ccccc3s2)c1` the figure was inactive: -4.17% [at 11.5 µM]; with `Cn1c(=O)cc(SCC(=O)N2CCN(c3ccccc3F)CC2)c2ccc(Cl)cc21`, inactive: -9.73%.

For `COCCCNC(=O)CSc1nc2cc3c(cc2c(=O)n1CCCC(=O)NCc1ccc2c(c1)OCO2)OCO3`, the “activity change, negative = inhibition” value is inactive: -12.3%. The same measure, in the same setting: with `CCn1nc(-c2ccccc2)c(-c2ccccc2)c(C(=O)Nc2ccc(NC(C)=O)cc2)c1=O` the figure was inactive: -4.91%; with `Cc1ccc(Cn2ccnc2SCC(=O)Nc2nnc(C)s2)cc1`, inactive: -27%; with `COc1ccc(OC)c(NC(=O)Nc2c(C)n(C)n(-c3ccccc3)c2=O)c1`, inactive: -17.1%. Same read-out and setting: with `COc1ccc(CNC(=O)c2cc3sccc3n2Cc2ccc(C)cc2)cc1` the figure was inactive: 22%; with `O=C(Cc1ccccc1)Nc1sc2c(c1C(=O)Nc1ccc(Br)cc1)CCCC2`, inactive: -30.5%.

As to `Cc1ccc(NC(=O)C2CCN(c3nc(-c4ccc(C(C)C)cc4)no3)CC2)c(Cl)c1`, the Potency was active: 0.1 µM. As for `Cc1ccc(C(=O)NC2(C(F)(F)F)N=C(c3ccccc3)N(Cc3ccccc3)C2=O)cc1` (centres undefined), the “activity change, negative = inhibition” value is inactive: -16.4%. On the same count and under the same terms, the value for `CCc1c(C)[nH]c2c1C(=O)C(CN1CCOCC1)CC2` (centres undefined) was inactive: 7.91%. As to `CCOc1ccc(CNC(=O)c2cc(-c3ccc(Cl)s3)nc3ccccc23)cc1`, the “activity change, negative = inhibition” value was inactive: -12.7%. Still for that read-out and setting: with `Cc1ccc2c(CNCc3ccc(C)o3)c(C(=O)O)n(Cc3ccc(F)cc3)c2c1` the figure was inactive: -28.2%; with `COc1ccccc1NC(=O)Cn1c(=O)n(CC(=O)NCc2ccccc2Cl)c(=O)c2sccc21`, inactive: -1.48%.

As for `O=C(c1ccc2c(c1)N(Cc1ccc(Cl)cc1)C(=O)c1ccccc1S2=O)N1CCCCC1` (centres undefined), the “activity change, negative = inhibition” value was inactive: -28.9%. For `CCO/C([O-])=N/c1c[n+](N2CCOCC2)no1`, the “activity change, negative = inhibition” value is inactive: 12.3%. Same read-out and setting: the value for `CCOC(=O)C1CCN(C(c2ccc(C)cc2)c2c(O)cc(C)n(CCOC)c2=O)CC1` (centres undefined) was inactive: -7.76%.

Regarding `CCOc1ccc(-c2cc(CCCC(=O)NCCc3cc(OC)c(OC)c(OC)c3)no2)cc1`, the Potency was active: 15.8 µM.

Consider `COc1ccc(CCNC(=O)CCCn2nc(C)c3sc4ccccc4c3c2=O)c(OC)c1`, for which the “activity change, negative = inhibition” value is inactive: -9.73%. The same measure, in the same setting: with `CCOc1ccc(NC(=O)Cn2c(=O)n(CCCS(=O)(=O)C3CCCCC3)c(=O)c3ccccc32)cc1` the figure was inactive: -7.28%. Same read-out and setting: the value for `Nc1ccc(O)c([N+](=O)[O-])c1` was inactive: 8.48% [at 116 µM]. In the case of `Cc1ccc(C(=O)Nc2ccccc2)cc1S(=O)(=O)Nc1ccccc1`, the “activity change, negative = inhibition” value was inactive: -18.4%. Same read-out and setting: the value for `COc1ccc(N2CCN(C(=O)C3CCN(S(=O)(=O)c4cn(C)cn4)CC3)CC2)cc1` was inactive: -6.54%; that for `Cc1ccc(OC(=O)CSc2nnc(-c3ccc4c(c3)OCO4)o2)cc1` was inactive: -16.5%; that for `Cc1ccc(-n2ncc3c(N4CCC(Cc5ccccc5)CC4)ncnc32)cc1C` was inactive: -1.07%. The same measure, in the same setting: the value for `Cc1cccc(N(C)C(=O)Cc2c(C(=O)O)[nH]c3ccccc23)c1` was inactive: -21.7%; that for `COc1ccc(CCNc2nc3cc(OC)c(OC)cc3c3nc(-c4ccccc4)nn23)cc1OC` was inactive: -32.5%. Regarding `Cc1cccc(N2CCN(c3ncnc4c3nc3n4CCCCC3)CC2C)c1` (centres undefined), the Potency was active: 5.01 µM. Regarding `COC(=O)c1cc(NC(=O)c2sc3ccccc3c2Cl)cc(C(=O)OC)c1`, the “activity change, negative = inhibition” value was inactive: -2.04%. Same read-out and setting: the value for `COC(=O)c1cc2occc2n1CC(=O)Nc1ccc(C)cc1Cl` was inactive: -14.6%; that for `N[C@@H](CCC(=O)N[C@@H](CS)C(=O)NCC(=O)O)C(=O)O` was inactive: 6.14% [at 25.2 µM]; that for `Cc1ccc(C)c(-n2nnc(-c3nc(-c4ccccc4C)no3)c2C)c1` was inactive: 23.8%.

On to `COc1ccc(-c2nn(-c3ccc(C)cc3)c3c2cnc2ccc(C)cc23)cc1OC`, for which the “activity change, negative = inhibition” value is inactive: -7.28%.

Regarding `CCCN1CCN(CCCNC(=O)C(CC)n2nc(C)n3c(cc4occc43)c2=O)CC1` (centres undefined), the “activity change, negative = inhibition” value was inactive: -14.4%. On the same count and under the same terms, with `O=C(NCC(c1cccnc1)N1CCN(Cc2ccccc2)CC1)C(=O)Nc1cccc(Cl)c1` (centres undefined) the figure was inactive: -20.5%.

Turning to `O=C(O)c1cccc(-n2cnc3cccnc32)c1`, the “activity change, negative = inhibition” value is inactive: -18.1%. For the compound `CCN(CC)CCNC(=O)c1cn(CC)c2ccc(S(=O)(=O)N(C)C3CCCCC3)cc2c1=O`, the “activity change, negative = inhibition” value was inactive: -7.63%.

For `CCC(C(=O)NC1CCCCC1)n1c(SCc2cccc(C)c2)nc2ccncc21` (centres undefined), the “activity change, negative = inhibition” value was inactive: -18.4%. Same read-out and setting: with `Cn1c(C(=O)N2CCC(C(=O)NCCc3ccccc3)CC2)cc2sccc21` the figure was inactive: -1.48%; with `N#Cc1ccccc1CSc1nnc2ccc3ccccc3n12`, inactive: 9.85%; with `COCc1c(Br)c(C)nc2sc3c(=O)n(-c4cccc(Br)c4)nnc3c12`, inactive: -11.2%. On the same count and under the same terms, with `COc1cc(C(=O)NCCCCCC(=O)O)cc(OC)c1OC` the figure was inactive: 6.14%; with `CC(NC(=O)c1ccco1)c1nc(-c2ccccc2)no1` (centres undefined), inactive: -10.3%; with `Cc1cc(=O)n(CC(=O)NC(C)c2ccccc2)c2c1c(C)nn2-c1cccc(F)c1` (centres undefined), inactive: -9.41%. Turning to `Nc1ccc([N+](=O)[O-])cc1O`, the “activity change, negative = inhibition” value was inactive: -18.5% [at 116 µM]. Still for that read-out and setting: with `CCN1C(=O)c2ccccc2S(=O)(=O)c2ccc(C(=O)NCc3ccc(OC)cc3)cc21` the figure was inactive: -12.8%.
